Values joined by “and” are separate entries in the source; they are usually repeats but may differ in a detail not shown here. Equal entries are not always repeated. Among all 340,000 compounds or so, about 12,000 (3.5%) were called active. The inconclusive results got no clear call from the source; some entries with a clear call stand among them for comparison. Calls follow the shape of the dose curve; as a rule, active = well fitted inhibition curve with a large enough effect; inconclusive = small, poorly fitted or top-dose-only effect, or another doubt; inactive = no such curve, though single readings can be large or run the other way. Potencies of inconclusive entries are doubtful fits and often do not repeat.
Assay: qHTS Assay for Inhibitors of Hepatitis C Virus (HCV)
Settings: Huh7.5.1 HCVcc-Cre (HCVcc is cell-culture hepatitis C virus) infection, luciferase reporter, 44 h; series mostly up to 41.8 µM
In short: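 Infectious HCVcc-Cre (~0.5 moi) was added to cells just after compound, with cells seeded 4 h earlier at 1,000 per well. Luciferase activity after 44 h culture reported infection; substrate was incubated 15 min at room temperature before reading.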
Potency is read from the fitted curve at half-maximal effect; tags tell the direction and shape of the fitted curve.

Compound	Potency
Cc1ccc(-c2nnn(CC(=O)N(Cc3ccco3)C(C(=O)NC(C)(C)C)c3cccs3)n2)o1 (centres undefined)	inconclusive: 31.6 µM [inhibitor, single point] and inconclusive: 10 µM [inhibitor, partial curve]
Fc1ccc(C2=CCN(C(c3cccs3)c3nnnn3CCc3ccccc3)CC2)cc1 (centres undefined)	inconclusive: 3.55 µM [inhibitor, full curve, poor fit]
COc1cccc2sc3cc(NCc4ccc5c(c4)OCO5)ccc3c(=O)c12	inconclusive: 17.8 µM [inhibitor, single point]
CC1CCN(S(=O)(=O)c2cc(C(=O)Nc3ccccn3)ccc2Br)CC1	inconclusive: 31.6 µM [inhibitor, single point]
COc1ccc(/C=N/NC(=O)c2cccs2)c2ccccc12	inconclusive: 22.4 µM [inhibitor, single point]
C=CCN(c1ccc(OC)cc1)S(=O)(=O)c1ccc(Cl)c(C(=O)OCC(=O)c2c(N)n(C)c(=O)n(C)c2=O)c1	inconclusive: 31.6 µM [inhibitor, single point]
O=c1/c(=C\c2cc([N+](=O)[O-])cc([N+](=O)[O-])c2O)sc2nc3ccccc3n12	inactive
Cc1[nH]n(-c2nc(-c3ccc(Cl)cc3)cs2)c(=O)c1N=Nc1ccc(O)cc1	active: 1.78 µM
CCOc1ccccc1N1CCN(C(=O)c2ccncc2)CC1	inactive
CC(=O)c1cn(CCOc2ccc(F)cc2)c2ccccc12	active: 12.6 µM
COc1ccc(OC)c(Nc2nc3ccc(C)cc3n3cnnc23)c1	inconclusive: 6.31 µM [inhibitor, partial curve]
C=CCC1C=CCC(CC=C)N1C(=O)c1ccccc1[N+](=O)[O-] (centres undefined)	active: 17.8 µM
COc1cc(C=O)ccc1OCCCOc1ccccc1[N+](=O)[O-]	inconclusive: 31.6 µM [inhibitor, single point]
COc1ccc(C(=O)Nc2cccc3c2CCCC3)c(OC)c1	active: 31.6 µM
COc1cc(Br)cc(/C=N/NC(=O)Cc2ccccc2)c1O	active: 12.6 µM
Cc1ccc(CNC(=O)CN(Cc2cccs2)C(=O)C2(C)CC(=O)N=C3C=CC=CN32)cc1 (centres undefined)	inactive
COc1cccc(CNc2nc(-c3cccnc3)nc3ccccc23)c1	inconclusive: 22.4 µM [inhibitor, single point]
Cc1ccc(CNC(=O)c2ccc3c(=O)c(O)c(-c4ccc(C)cc4)[nH]c3c2)cc1	inconclusive: 4.47 µM [inhibitor, full curve]
COc1cccc(CNC(=O)C2CCC(CNc3c(N4CCC(C)CC4)c(=O)c3=O)CC2)c1 (centres undefined)	inconclusive: 3.16 µM [inhibitor, single point]
Cc1ccc(NC(=O)c2ccc3c(c2)CCN3S(C)(=O)=O)cc1C	active: 11.2 µM
O=C(CCc1ccc(S(=O)(=O)NCc2ccccc2)cc1)N1CCN(Cc2ccc3c(c2)OCO3)CC1	inconclusive: 14.1 µM [inhibitor, single point]
O=C(NCc1cccnc1)c1ccc(NC(=O)c2ccc([N+](=O)[O-])cc2)cc1	inconclusive: 22.4 µM [inhibitor, single point]
COCCCNC(=O)C1CCN(S(=O)(=O)N(CC(C)C)CC(C)C)CC1	inconclusive: 5.62 µM [inhibitor, partial curve]

Compound	Potency
Nc1cc2c(cc1Br)-c1ccccc1C2=NO	inconclusive: 5.62 µM [inhibitor, full curve]
Oc1ccccc1-c1csc(-c2ccccc2)n1	inconclusive: 31.6 µM [inhibitor, single point]
Cc1cc(C)cc(NC(=O)Nc2ccc(-n3ccc(C(F)(F)F)n3)cc2)c1	inconclusive: 22.4 µM [inhibitor, single point]
O=C(OCc1c(-c2ccccc2)ncc2ccccc12)c1cccs1	inconclusive: 11.2 µM [inhibitor, partial curve]
C=CCOc1nc2c(c(=O)n(C)c(=O)n2C)n1Cc1ccccc1Cl	inconclusive: 28.2 µM [inhibitor, single point]
O=C(Nc1ccccc1)c1ccc2nc(-c3ccco3)c(-c3ccco3)nc2c1	active: 8.91 µM
COc1cc(O)cc(O)c1C(=O)/C=C/c1ccccc1	inconclusive: 2.24 µM [inhibitor, partial curve]
Cc1c(Cl)c([N+](=O)[O-])nn1CCCC(=O)Nc1cccc(Cl)c1	inactive
O=C(c1cc(-c2ccc(Br)cc2)n[nH]1)N1CCN(C(=O)c2ccccc2Br)CC1	inconclusive: 22.4 µM [inhibitor, single point]
CC(=O)Nc1ccc(C(=O)NNS(=O)(=O)c2ccc(C)cc2)cc1	inactive
CCOC(=O)c1ccc(NC(=O)C2C3CCCCC32)cc1 (centres undefined)	inconclusive: 3.98 µM [inhibitor, full curve]
CC1(C(=O)OCC(=O)NCCNC(=O)COC(=O)C2(C)CC2(Cl)Cl)CC1(Cl)Cl (centres undefined)	inconclusive: 31.6 µM [inhibitor, single point]
Cc1c(CN2CCC(n3nccc3NC(=O)C3CC3)CC2)[nH]c2ccccc12	inactive
CC1CCN(c2c(NCc3ccc(C(=O)NCc4ccco4)cc3)c(=O)c2=O)CC1	inactive
CSc1ncccc1C(=O)N(C)CC(=O)Nc1ccc(Cl)cc1	inconclusive: 31.6 µM [inhibitor, single point]
NS(=O)(=O)c1ccc(CCNC(=O)c2ccccc2OCc2ccc(F)cc2)cc1	inconclusive: 3.55 µM [inhibitor, partial curve]
CN1C(=O)NC(NC(=O)c2cccs2)(C(F)(F)F)C1=O (centres undefined)	inactive
C/C(=N\Nc1nncc2ccccc12)c1cccc(OC(F)F)c1	inconclusive: 8.91 µM [inhibitor, partial curve]
Cc1cc(=O)nc2c3ccccc3n(CC(=O)Nc3ccccc3Br)n12	inconclusive: 14.1 µM [inhibitor, single point]
O=C1C[C@@H]2c3c(cccc3CN1Cc1ccc(Cl)cc1)C[C@@H](O)[C@H]2O	inactive
CCN(c1ccccc1)S(=O)(=O)c1cccc(C(=O)NCc2ccncc2)c1	inconclusive: 31.6 µM [inhibitor, single point]
CCOc1cc(N2CCOCC2)c(OCC)cc1NC(=O)c1ccc(OC(C)C)cc1	inconclusive: 0.562 µM [inhibitor, full curve]
Cc1cc(=O)oc(C)c1C(=O)N1CCc2c([nH]c3ccccc23)C1C(C)C (centres undefined)	inactive

Compound	Potency
CCOC(=O)c1c(C)[nH]c(C(=O)CSc2ccccc2)c1C	inconclusive: 8.91 µM [inhibitor, partial curve]
Cc1cc(C(=O)OCC(=O)NCc2ccco2)c(C)n1-c1ccc(F)cc1	inconclusive: 7.94 µM [inhibitor, partial curve, poor fit]
COc1ccccc1C=NNc1nc(C)cc(=O)[nH]1	inactive
CCCc1nc(SCC(=O)N2CCc3ccccc3C2)c2ccccc2n1	inconclusive: 22.4 µM [inhibitor, single point]
COC(=O)c1sccc1NC(=S)N(C)C1CCCCC1	inactive
CCCCC(=O)Nc1ccc(C)c(O)c1	inactive
Cc1cc(Cl)c(OCCOCCN2CCNCC2)c(Cl)c1	inconclusive: 31.6 µM [inhibitor, single point]
COC(=O)COc1ccc(C(=O)Cn2c(NCCCO)nc3ccccc32)cc1	inactive
O=C(CCS(=O)(=O)c1ccccc1)Nc1nc2cc3c(cc2s1)OCO3	inactive
O=C(COC(=O)c1c2c(nc3ccccc13)/C(=C\c1cccs1)CCC2)Nc1ccccc1	inconclusive: 2.51 µM [inhibitor, full curve]
FC(F)(F)c1cccc(N2CCN(c3nnnn3-c3ccccc3)CC2)c1	inconclusive: 31.6 µM [inhibitor, single point]
COc1cc(/C=C(/C#N)c2nc3ccccc3[nH]2)ccc1OCC(=O)Nc1ccccc1C(C)C	inconclusive: 0.562 µM [inhibitor, full curve]
Cc1ccc2[nH]c(=O)c(CN(CCCN(C)C)C(=O)Nc3ccc(Cl)cc3)cc2c1	active: 10 µM
O=C(O)C1OC(Oc2c(-c3ccc(O)c(O)c3)oc3cc(O)cc(O)c3c2=O)C(O)C(O)C1O (centres undefined)	inconclusive: 0.501 µM [inhibitor, full curve, poor fit]
COc1ccc(-c2nn(-c3ccccc3)cc2/C=N/NS(=O)(=O)c2ccccc2)cc1	inconclusive: 4.47 µM [inhibitor, partial curve]
COc1cc(Cl)c(C)cc1NC(=O)CSc1cc(Cl)ccc1Cl	inconclusive: 7.94 µM [inhibitor, partial curve]
Cc1c(CN(C)C)c2c(n1Cc1ccccc1)C(=O)c1ccc(Br)cc1-2	inconclusive: 8.91 µM [inhibitor, partial curve, poor fit]
COCCSc1nc(N)c2c3c(sc2n1)CN(C)CC3	inactive
O=C(NN=C(c1ccccc1)c1ccccn1)c1ccccc1	active: 2.51 µM
Nc1ncc(Br)cc1S(=O)(=O)Nc1cc(C(F)(F)F)cc(C(F)(F)F)c1	inconclusive: 8.91 µM [inhibitor, partial curve]
CC(C)N1CCc2c(sc(NC(=O)CCS(=O)(=O)c3ccccc3)c2C#N)C1	inconclusive: 12.6 µM [inhibitor, single point]
CCOC(=O)c1cnc2ccc(OCC)cc2c1NCc1cccnc1	inconclusive: 14.1 µM [inhibitor, single point]
O=C(CSc1nc2[nH]ncc2c(=O)n1-c1ccccc1)c1ccc2c(c1)OCCO2	inconclusive: 14.1 µM [inhibitor, single point]

Reference: PubChem BioAssay AID651820 (National Center for Advancing Translational Sciences (NCATS), 2012)
